# The other results are listed elsewhere or left out.
# B1: Neuropilin-1 (Homo sapiens), O14786 (protein)
# chain: FKCMEALGMESGEIHSDQITASSQYSTNWSAERSRLNYPENGWTPGEDSYREWIQVDLGLLRFVTAVGTQGAISKETKKKYYVKTYKIDVSSNGEDWITIKEGNKPVLFQGNTNPTDVVVAVFPKPLITRFVRIKPATWETGISMRFEVYGCKITDYPCSGMLGMVSGLISDSQITSSNQGDRNWMPENIRLVTSRSGWALPPAPHSYINEWLQIDLGEEKIVRGIIIQGGKHRENKVFMRKFKIGYSNNGSDWKMIMDDSKRKAKSFEGNNNYDTPELRTFPALSTRFIRIYPERATHGGLGLRMELLGCEVE
# How the values were obtained:
# Assay in all cases: glycan array binding signal (z-score within array); higher = stronger binding
# Settings in all cases: glycan notation: IUPAC condensed, linker removed
# Gal4S(b1-4)GlcNAc = target: Gal4S(b1-4)GlcNAc
# How it was run: (§1)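 Columns mapping to the same glycan were averaged after glycan names were converted to IUPAC-condensed notation. The data come from 3228 arrays in the Consortium for Functional Glycomics database, limited to those with an available protein sequence. Binding is reported as a within-array Z-score averaged across arrays of one protein sequence and across linkers.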
# Gal4S6S(b1-4)GlcNAc = target: Gal4S6S(b1-4)GlcNAc
# How it was run: as §1
# Gal6S(b1-4)Glc = target: Gal6S(b1-4)Glc
# How it was run: as §1
# Gal6S(b1-4)Glc6S = target: Gal6S(b1-4)Glc6S
# How it was run: as §1
# Gal6S(b1-4)GlcNAc = target: Gal6S(b1-4)GlcNAc
# How it was run: as §1
# Gal6S(b1-4)GlcNAc6S = target: Gal6S(b1-4)GlcNAc6S
# How it was run: as §1
# GalNAc(a1-3)Gal = target: GalNAc(a1-3)Gal
# How it was run: as §1
# GalNAc(a1-3)GalNAc = target: GalNAc(a1-3)GalNAc
# How it was run: as §1
# GalNAc(b1-3)Gal = target: GalNAc(b1-3)Gal
# How it was run: as §1
# [1] = target: GalNAc(b1-3)Gal(a1-4)Gal(b1-4)GlcNAc
# How it was run: as §1
# [2] = target: GalNAc(b1-3)Gal(a1-4)Gal(b1-4)GlcNAc(b1-3)Gal(b1-4)Glc
# How it was run: as §1
# GalNAc(b1-3)GalNAc = target: GalNAc(b1-3)GalNAc
# How it was run: as §1
# GalNAc(b1-4)GlcNAc = target: GalNAc(b1-4)GlcNAc
# How it was run: as §1
# [3] = target: GalNAc(b1-4)GlcNAc(b1-2)Man(a1-3)[GalNAc(b1-4)GlcNAc(b1-2)Man(a1-6)]Man(b1-4)GlcNAc(b1-4)GlcNAc
# How it was run: as §1
# Glc(a1-4)Glc = target: Glc(a1-4)Glc
# How it was run: as §1
# Glc(a1-6)Glc(a1-6)Glc = target: Glc(a1-6)Glc(a1-6)Glc
# How it was run: as §1
# Glc(b1-4)Glc = target: Glc(b1-4)Glc
# How it was run: as §1
# Glc(b1-6)Glc = target: Glc(b1-6)Glc
# How it was run: as §1
# GlcA(b1-3)Gal = target: GlcA(b1-3)Gal
# How it was run: as §1
# GlcA(b1-3)GlcNAc = target: GlcA(b1-3)GlcNAc
# How it was run: as §1
# GlcA(b1-6)Gal = target: GlcA(b1-6)Gal
# How it was run: as §1
# [4] = target: GlcNAc(a1-3)Gal(b1-4)GlcNAc
# How it was run: as §1
# [5] = target: GlcNAc(a1-4)Gal(b1-3)GlcNAc
# How it was run: as §1
# [6] = target: GlcNAc(a1-4)Gal(b1-4)GalNAc
# How it was run: as §1
# [7] = target: GlcNAc(a1-4)Gal(b1-4)GlcNAc
# How it was run: as §1
# [8] = target: GlcNAc(a1-4)Gal(b1-4)GlcNAc(b1-3)Gal(b1-4)Glc
# How it was run: as §1
# [9] = target: GlcNAc(a1-4)Gal(b1-4)GlcNAc(b1-3)Gal(b1-4)GlcNAc
# How it was run: as §1
# [10] = target: GlcNAc(a1-4)Gal(b1-4)GlcNAc(b1-3)Gal(b1-4)GlcNAc(b1-3)Gal(b1-4)GlcNAc
# How it was run: as §1
# [11] = target: GlcNAc(a1-4)Gal(b1-4)GlcNAc(b1-3)Gal(b1-4)[Fuc(a1-3)]GlcNAc(b1-3)Gal(b1-4)[Fuc(a1-3)]GlcNAc
# How it was run: as §1
# [12] = target: GlcNAc(a1-6)Gal(b1-4)GlcNAc
# How it was run: as §1
# [13] = target: GlcNAc(b1-2)Gal(b1-3)GalNAc
# How it was run: as §1
# [14] = target: GlcNAc(b1-2)Man(a1-3)[GlcNAc(b1-2)Man(a1-6)]Man(b1-4)GlcNAc(b1-4)GlcNAc
# How it was run: as §1
# [15] = target: GlcNAc(b1-2)Man(a1-3)[GlcNAc(b1-2)Man(a1-6)]Man(b1-4)GlcNAc(b1-4)[Fuc(a1-6)]GlcNAc
# How it was run: as §1
# GlcNAc(b1-3)Gal = target: GlcNAc(b1-3)Gal
# How it was run: as §1
# [16] = target: GlcNAc(b1-3)Gal(b1-3)GalNAc
# How it was run: as §1
# GlcNAc(b1-3)Gal(b1-4)Glc = target: GlcNAc(b1-3)Gal(b1-4)Glc
# How it was run: as §1
# [17] = target: GlcNAc(b1-3)Gal(b1-4)GlcNAc
# How it was run: as §1
# [18] = target: GlcNAc(b1-3)Gal(b1-4)GlcNAc(b1-3)Gal(b1-4)GlcNAc
# How it was run: as §1
# GlcNAc(b1-3)GalNAc = target: GlcNAc(b1-3)GalNAc
# How it was run: as §1
# GlcNAc(b1-3)Man = target: GlcNAc(b1-3)Man
# How it was run: as §1
# [19] = target: GlcNAc(b1-3)[GlcNAc(b1-4)][GlcNAc(b1-6)]GlcNAc
# How it was run: as §1
# [20] = target: GlcNAc(b1-3)[GlcNAc(b1-6)]Gal(b1-4)GlcNAc
# How it was run: as §1
# [21] = target: GlcNAc(b1-3)[GlcNAc(b1-6)]GalNAc
# How it was run: as §1
# [22] = target: GlcNAc(b1-4)Gal(b1-4)GlcNAc
# How it was run: as §1
# GlcNAc(b1-4)GlcNAc = target: GlcNAc(b1-4)GlcNAc
# How it was run: as §1
binder,measurement,setting,value
B1,glycan array binding signal (z-score),Gal4S(b1-4)GlcNAc,-0.235
same,glycan array binding signal (z-score),Gal4S6S(b1-4)GlcNAc,-0.012
same,glycan array binding signal (z-score),Gal6S(b1-4)Glc,-0.175
same,glycan array binding signal (z-score),Gal6S(b1-4)Glc6S,0.166
same,glycan array binding signal (z-score),Gal6S(b1-4)GlcNAc,-0.225
same,glycan array binding signal (z-score),Gal6S(b1-4)GlcNAc6S,0.147
same,glycan array binding signal (z-score),GalNAc(a1-3)Gal,-0.188
same,glycan array binding signal (z-score),GalNAc(a1-3)GalNAc,-0.255
same,glycan array binding signal (z-score),GalNAc(b1-3)Gal,-0.291
same,glycan array binding signal (z-score),[1],-0.216
same,glycan array binding signal (z-score),[2],-0.299
same,glycan array binding signal (z-score),GalNAc(b1-3)GalNAc,-0.225
same,glycan array binding signal (z-score),GalNAc(b1-4)GlcNAc,0.04
same,glycan array binding signal (z-score),[3],0.263
same,glycan array binding signal (z-score),Glc(a1-4)Glc,-0.252
same,glycan array binding signal (z-score),Glc(a1-6)Glc(a1-6)Glc,-0.316
same,glycan array binding signal (z-score),Glc(b1-4)Glc,-0.188
same,glycan array binding signal (z-score),Glc(b1-6)Glc,-0.271
same,glycan array binding signal (z-score),GlcA(b1-3)Gal,-0.271
same,glycan array binding signal (z-score),GlcA(b1-3)GlcNAc,-0.253
same,glycan array binding signal (z-score),GlcA(b1-6)Gal,-0.189
same,glycan array binding signal (z-score),[4],-0.186
same,glycan array binding signal (z-score),[5],0.182
same,glycan array binding signal (z-score),[6],1.27
same,glycan array binding signal (z-score),[7],-0.244
same,glycan array binding signal (z-score),[8],-0.22
same,glycan array binding signal (z-score),[9],-0.004
same,glycan array binding signal (z-score),[10],-0.23
same,glycan array binding signal (z-score),[11],2.38
same,glycan array binding signal (z-score),[12],-0.248
same,glycan array binding signal (z-score),[13],-0.307
same,glycan array binding signal (z-score),[14],-0.176
same,glycan array binding signal (z-score),[15],0.048
same,glycan array binding signal (z-score),GlcNAc(b1-3)Gal,-0.326
same,glycan array binding signal (z-score),[16],0.019
same,glycan array binding signal (z-score),GlcNAc(b1-3)Gal(b1-4)Glc,0.136
same,glycan array binding signal (z-score),[17],-0.298
same,glycan array binding signal (z-score),[18],-0.333
same,glycan array binding signal (z-score),GlcNAc(b1-3)GalNAc,-0.296
same,glycan array binding signal (z-score),GlcNAc(b1-3)Man,-0.288
same,glycan array binding signal (z-score),[19],-0.223
same,glycan array binding signal (z-score),[20],-0.286
same,glycan array binding signal (z-score),[21],-0.265
same,glycan array binding signal (z-score),[22],-0.203
same,glycan array binding signal (z-score),GlcNAc(b1-4)GlcNAc,-0.215

# — the supplement of paper PMC8728848
